Measurements taken from publication PMC5515971, “Utility of spherical human liver microtissues for prediction of clinical drug-induced liver injury” (Archives of Toxicology, 2017).

Key:
[1] = system: 3D human liver microtissues (hLiMT); experiment: Cytotoxicity (cellular ATP, CellTiter-Glo 2.0) in 3D human liver microtissues, 14 day repeat-dose treatment; settings: for IC50: Homo sapiens, Hepatocyte, 336 h, read-out: Geomean IC50 [µM]
[2] = system: primary human hepatocytes (PHH); experiment: Cytotoxicity (cellular ATP, CellTiter-Glo) in 2D plated primary human hepatocytes, 48 h treatment; format: cell-based; settings: for IC50: Hepatocyte, 2D primary human hepatocytes (lot IZT), 48 h treatment, total cellular ATP content, read-out: Geomean IC50;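 on all read-outs here: 384-well plates, luminescence read-out, normalized to vehicle wells with 1% DMSO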
[3] = system: 3D human liver microtissues (hLiMT); experiment: Cytotoxicity (cellular ATP) in 3D human liver microtissues, 5-6 days treatment; format: cell-based; settings: ATP content, read-out: IC50 SHORT;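 further: Hanging-drop spheroids, seven-point dilution series, re-dosed on day 3, CellTiter-Glo 2.0 luminescence, normalized to 0.5 or 1% DMSO vehicle controls on the same plate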
[4] = system: 3D human liver microtissues (hLiMT); experiment: alpha-GST release into hLiMT supernatant (ELISA); format: cell-based; settings: 336 h, 14 days, release into medium, read-out: IC50 (α-GST assay)
Experimental: Supernatants from single hLiMT (in triplicates) were analysed for α-GST content using EKF’s α-GST ELISA assay. Briefly, 50 μL of the thawed cell-culture supernatants from single microtissues was transferred into a new v-bottom plate and diluted with 60 μl sample diluent buffer. From this dilution, 100 μL were transferred to the microassay strips. The ELISA was otherwise performed according to the manufacturer’s instructions.

| SMILES | IC50 [1] [µM] | IC50 [2] [µM] | IC50 [3] [µM] | IC50 [4] [µM] | classification at 100 μM IC50 threshold ([1]; hLiMT 14 days) | classification at 100 μM IC50 threshold ([2]; PHH 48 h) |
| --- | --- | --- | --- | --- | --- | --- |
| CNCCC(Oc1ccc(C(F)(F)F)cc1)c1ccccc1 (stereo not shown) [Fluoxetine] | 11.3 | 16.5 |  |  |  |  |
| Cc1ccccc1C(OCCN(C)C)c1ccccc1 (stereo not shown) [Orphenadrine] | > 100 | 80.5 |  |  |  |  |
| CC/C(=C(\c1ccccc1)c1ccc(OCCN(C)C)cc1)c1ccccc1 [Tamoxifen] | 2.5 |  | 3.6 |  |  |  |
| CCCCc1oc2ccccc2c1C(=O)c1cc(I)c(OCCN(CC)CC)c(I)c1 [Amiodarone] |  |  | 65.9 | 45.7 |  |  |
| CN(C)CCCN1c2ccccc2CCc2ccc(Cl)cc21 [Clomipramine] | 11.3 | 25.3 |  |  |  |  |
| CN1[C@@H]2CC[C@H]1C[C@@H](OC(c1ccccc1)c1ccccc1)C2 [Benztropine] | ~13.8 | 27.8 |  |  | false positives | false positives |
| CCN(CC)CC#CCOC(=O)C(O)(c1ccccc1)C1CCCCC1 (stereo not shown) [Oxybutynin] | > 10 | > 10 |  |  |  |  |
